Assay results taken from patent US20100310561A1 (Boehringer Ingelheim, published 2010).

T1: human natriuretic peptide receptor A (NPRA) (human, UniProt P16066 33-1061)
T1 sequence (looked up): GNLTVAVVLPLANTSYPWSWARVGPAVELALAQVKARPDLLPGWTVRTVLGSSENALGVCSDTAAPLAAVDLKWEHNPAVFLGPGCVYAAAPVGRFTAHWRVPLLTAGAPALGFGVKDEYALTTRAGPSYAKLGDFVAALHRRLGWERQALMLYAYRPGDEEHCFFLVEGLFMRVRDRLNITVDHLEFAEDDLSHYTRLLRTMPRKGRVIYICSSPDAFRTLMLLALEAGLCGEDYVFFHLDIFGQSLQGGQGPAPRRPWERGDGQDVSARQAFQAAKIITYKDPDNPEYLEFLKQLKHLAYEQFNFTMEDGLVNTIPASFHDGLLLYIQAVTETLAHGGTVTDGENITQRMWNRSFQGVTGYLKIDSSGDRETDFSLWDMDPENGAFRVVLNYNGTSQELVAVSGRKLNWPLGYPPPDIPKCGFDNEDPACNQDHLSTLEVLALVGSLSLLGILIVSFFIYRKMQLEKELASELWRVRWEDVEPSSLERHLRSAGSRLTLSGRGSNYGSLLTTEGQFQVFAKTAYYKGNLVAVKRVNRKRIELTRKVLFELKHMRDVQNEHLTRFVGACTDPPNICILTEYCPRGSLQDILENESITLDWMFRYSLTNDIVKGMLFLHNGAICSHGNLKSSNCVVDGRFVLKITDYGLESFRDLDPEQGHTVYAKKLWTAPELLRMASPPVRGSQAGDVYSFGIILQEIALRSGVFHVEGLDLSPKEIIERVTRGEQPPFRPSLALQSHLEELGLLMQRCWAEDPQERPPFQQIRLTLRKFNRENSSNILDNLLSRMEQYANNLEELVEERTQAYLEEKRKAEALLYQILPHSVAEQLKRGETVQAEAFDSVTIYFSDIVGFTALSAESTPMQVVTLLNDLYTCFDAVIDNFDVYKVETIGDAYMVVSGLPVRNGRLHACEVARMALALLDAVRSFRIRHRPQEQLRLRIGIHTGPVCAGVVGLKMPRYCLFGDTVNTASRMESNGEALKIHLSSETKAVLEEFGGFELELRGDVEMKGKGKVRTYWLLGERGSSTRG

T2: rat NPRA (rat, UniProt P18910 29-1057)
T2 sequence (looked up): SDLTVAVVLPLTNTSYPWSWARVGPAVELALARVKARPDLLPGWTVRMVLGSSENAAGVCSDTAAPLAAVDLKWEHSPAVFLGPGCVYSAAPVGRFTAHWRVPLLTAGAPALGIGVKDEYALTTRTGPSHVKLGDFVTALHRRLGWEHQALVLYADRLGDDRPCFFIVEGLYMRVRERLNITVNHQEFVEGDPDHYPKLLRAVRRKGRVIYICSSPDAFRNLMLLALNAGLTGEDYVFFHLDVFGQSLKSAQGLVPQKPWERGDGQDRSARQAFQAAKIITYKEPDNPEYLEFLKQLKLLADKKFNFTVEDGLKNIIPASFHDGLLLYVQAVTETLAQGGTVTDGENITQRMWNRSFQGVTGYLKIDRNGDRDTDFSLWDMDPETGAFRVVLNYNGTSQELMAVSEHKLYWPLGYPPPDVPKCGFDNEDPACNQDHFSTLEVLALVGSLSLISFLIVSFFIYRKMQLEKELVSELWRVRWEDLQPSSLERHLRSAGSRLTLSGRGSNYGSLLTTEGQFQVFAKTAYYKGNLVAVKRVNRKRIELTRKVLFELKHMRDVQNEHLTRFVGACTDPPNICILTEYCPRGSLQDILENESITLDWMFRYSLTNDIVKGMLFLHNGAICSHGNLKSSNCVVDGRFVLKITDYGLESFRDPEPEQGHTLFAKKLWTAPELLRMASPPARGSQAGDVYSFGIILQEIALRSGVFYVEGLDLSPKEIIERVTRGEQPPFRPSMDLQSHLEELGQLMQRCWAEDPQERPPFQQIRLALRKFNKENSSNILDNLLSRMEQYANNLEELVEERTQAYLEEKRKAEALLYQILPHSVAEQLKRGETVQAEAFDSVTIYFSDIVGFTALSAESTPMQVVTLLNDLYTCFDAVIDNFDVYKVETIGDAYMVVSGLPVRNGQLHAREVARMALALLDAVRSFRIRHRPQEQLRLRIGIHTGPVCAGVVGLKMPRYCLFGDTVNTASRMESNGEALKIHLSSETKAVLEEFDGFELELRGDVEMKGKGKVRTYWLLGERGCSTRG

T3: canine NPRA (canine, UniProt A0A8I3MHU3 32-1060)
T3 sequence: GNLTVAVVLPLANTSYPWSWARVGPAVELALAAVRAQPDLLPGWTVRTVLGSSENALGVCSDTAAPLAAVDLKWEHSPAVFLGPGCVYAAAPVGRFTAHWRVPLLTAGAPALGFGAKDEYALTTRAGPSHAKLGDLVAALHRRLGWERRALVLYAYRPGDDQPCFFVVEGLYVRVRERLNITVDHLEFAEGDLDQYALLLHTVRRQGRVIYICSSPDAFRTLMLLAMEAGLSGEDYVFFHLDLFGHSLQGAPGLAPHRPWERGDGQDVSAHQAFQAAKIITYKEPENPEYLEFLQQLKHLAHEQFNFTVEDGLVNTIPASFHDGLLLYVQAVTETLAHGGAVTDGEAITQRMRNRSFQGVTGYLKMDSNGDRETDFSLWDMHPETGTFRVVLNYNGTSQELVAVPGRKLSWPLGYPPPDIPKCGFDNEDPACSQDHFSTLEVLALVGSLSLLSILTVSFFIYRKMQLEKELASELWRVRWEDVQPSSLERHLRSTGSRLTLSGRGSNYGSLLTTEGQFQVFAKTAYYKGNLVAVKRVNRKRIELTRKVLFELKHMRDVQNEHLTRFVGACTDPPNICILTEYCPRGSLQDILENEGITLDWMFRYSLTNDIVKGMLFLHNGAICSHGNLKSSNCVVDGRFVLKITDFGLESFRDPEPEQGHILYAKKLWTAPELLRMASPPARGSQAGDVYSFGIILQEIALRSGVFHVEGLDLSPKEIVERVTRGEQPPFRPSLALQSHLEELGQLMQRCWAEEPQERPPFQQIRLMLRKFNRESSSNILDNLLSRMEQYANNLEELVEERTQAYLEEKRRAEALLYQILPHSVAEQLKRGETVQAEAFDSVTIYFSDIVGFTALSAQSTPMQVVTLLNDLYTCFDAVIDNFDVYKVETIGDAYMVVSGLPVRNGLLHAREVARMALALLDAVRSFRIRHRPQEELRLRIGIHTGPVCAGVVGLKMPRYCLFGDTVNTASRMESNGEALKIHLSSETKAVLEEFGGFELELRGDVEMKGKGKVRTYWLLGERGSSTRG


Tests used:
Assay in all cases: cell-based or functional assay
[1] = molecular target: T1, human natriuretic peptide receptor A …
monkey NPRA = monkey NPRA (monkey)
rat NPRA = molecular target: T2, rat NPRA
canine NPRA = molecular target: T3, canine NPRA

| Binder | cGMP EC50 (nM) Lab 1 (Results 1) [1] | cGMP EC50 (nM) Lab 1 (Results 2) [1] | cGMP EC50 (nM) Lab 2 (Results 1) [1] | cGMP EC50 (nM) Monkey NPRA (monkey NPRA) | cGMP EC50 (nM) Rat NPRA (rat NPRA) | cGMP EC50 (nM) Dog NPRA (canine NPRA) |
| --- | --- | --- | --- | --- | --- | --- |
| Construct 9, ANPXY-L2-Fc1AB linked to a second ANPXY-L2-Fc1AB (semi-synthetic dimer) (Fc fusion) SLRRSSCFGGRMDRIGAQSGLGCNSFRYGG[not shown - human IgG1 Fc] | 128 nM | 118 nM | 88 nM |  |  |  |
| Construct 2, ANPXY-L4-Fc1AB (recombinant) (Fc fusion, also called ANP28-11aa-hFc1) SLRRSSCFGGRMDRIGAQSGLGCNSFRYGGSGGSGGSGG[not shown - human IgG1 Fc] |  |  |  | 27 nM | 55 nM | 31 nM |
| Construct 14, ANPXY-L5a-Fc1AB linked to a second ANPXY-L5a-Fc1AB (semi-synthetic, 16 aa linker) (Fc fusion) SLRRSSCFGGRMDRIGAQSGLGCNSFRYGSGGSGGSGGSGGSGG[not shown - human IgG1 Fc] |  |  | 14 nM |  |  |  |
| Construct 3, ANPXY-L6-Fc1AB (recombinant) (Fc fusion, also called ANP28-20aa-hFc1) SLRRSSCFGGRMDRIGAQSGLGCNSFRYGGSGGSGGSGGSGGSGGSGG[not shown - human IgG1 Fc] |  |  |  | 12 nM | 25 nM | 11 nM |
